# Data as given in paper PMC4336329 (PLoS ONE, 2015).
# The campaign covered roughly 310,000 compounds. About 2,200 (0.71%) showed an effect of 50% or more. Effects have a minus sign here. The list shows a part of the results.
# Target: human ether-à-go-go-related gene (hERG) potassium channel (human, UniProt Q12809)
# Assay: primary screen, population patch clamp on CHO cells stably expressing hERG
# Sequence of human ether-à-go-go-related gene (hERG) potassium channel (Q12809 whole entry, looked up): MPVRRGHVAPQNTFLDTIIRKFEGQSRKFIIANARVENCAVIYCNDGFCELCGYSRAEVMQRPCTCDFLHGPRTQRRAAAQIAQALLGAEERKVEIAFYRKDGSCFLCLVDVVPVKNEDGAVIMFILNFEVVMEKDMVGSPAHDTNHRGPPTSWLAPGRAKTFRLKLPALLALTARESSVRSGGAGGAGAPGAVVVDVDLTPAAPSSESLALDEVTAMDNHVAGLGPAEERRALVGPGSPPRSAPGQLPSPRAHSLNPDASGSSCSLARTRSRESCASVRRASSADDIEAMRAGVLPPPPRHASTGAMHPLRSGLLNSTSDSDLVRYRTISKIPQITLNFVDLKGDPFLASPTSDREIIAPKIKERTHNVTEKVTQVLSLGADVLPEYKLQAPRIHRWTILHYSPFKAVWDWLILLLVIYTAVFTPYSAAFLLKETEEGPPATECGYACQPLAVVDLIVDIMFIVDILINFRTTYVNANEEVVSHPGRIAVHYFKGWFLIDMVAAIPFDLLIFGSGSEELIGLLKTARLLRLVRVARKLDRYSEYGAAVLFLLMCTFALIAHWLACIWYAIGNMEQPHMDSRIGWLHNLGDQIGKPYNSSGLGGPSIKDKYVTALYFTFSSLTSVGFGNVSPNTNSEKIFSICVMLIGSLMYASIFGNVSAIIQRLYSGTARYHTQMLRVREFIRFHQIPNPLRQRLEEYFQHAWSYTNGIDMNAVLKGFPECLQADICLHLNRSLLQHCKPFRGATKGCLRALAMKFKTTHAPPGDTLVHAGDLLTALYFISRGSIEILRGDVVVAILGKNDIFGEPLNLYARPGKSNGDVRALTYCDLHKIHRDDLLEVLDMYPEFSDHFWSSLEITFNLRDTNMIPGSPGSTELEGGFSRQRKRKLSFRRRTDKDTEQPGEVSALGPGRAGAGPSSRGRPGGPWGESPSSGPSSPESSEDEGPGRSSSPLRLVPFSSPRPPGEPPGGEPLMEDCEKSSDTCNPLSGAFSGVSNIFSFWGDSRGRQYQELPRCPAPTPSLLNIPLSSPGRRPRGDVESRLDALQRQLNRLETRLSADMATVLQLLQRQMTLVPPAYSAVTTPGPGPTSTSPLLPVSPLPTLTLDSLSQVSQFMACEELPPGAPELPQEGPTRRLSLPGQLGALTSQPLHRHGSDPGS
row,SMILES,"hERG current change (%, negative = inhibition) at 1uM [%]"
1,COc1ccc(NC(=O)c2cc(NC(=O)C3CCCCC3C(=O)O)ccc2N2CCOCC2)cc1 (centres unmarked),-2.19
2,Cc1cccc(OCCSCc2nc3ccccc3[nH]2)c1,12.1
3,COc1ccccc1NC(=O)CCn1c(=O)c2cccn2c2ccccc21,12.4
4,FC(F)(F)c1nc(NCC2CCCO2)c2nnn(Cc3ccccc3Cl)c2n1 (centres unmarked),10.6
5,Cc1ccc(C(=O)NC(=S)Nc2cccc3c(C)cc(C)nc23)cc1,12.1
6,Cc1cc(C)nc(SCc2nnc(SCC(=O)Nc3c(C)cccc3C)o2)n1,5.52
7,O=C(CSc1ccc(-c2cccnc2)nn1)N1CCCCCC1,19.9
8,CC(C)N(C(=O)CSc1nc2ccccc2n1Cc1ccc(F)cc1)C(C)C,3.06
9,O=C(O)COCC(=O)N1CCCN(c2ccc(C(F)(F)F)cn2)CC1,8.76
10,O=C(CNC(=O)c1ccco1)Nc1ccc(F)c(Cl)c1,15.7
11,CCN1C(=O)c2cccc3c(S(=O)(=O)Nc4ccccc4O)ccc1c23,14.7
12,CS(=O)(=O)c1ccc(C(=O)Nc2ccc(-c3nc4ccccc4[nH]3)cc2)cc1,4.62
13,CC12CCC(C(=O)NNc3ccc([N+](=O)[O-])cc3)(OC1=O)C2(C)C (centres unmarked),8.53
14,Cc1cccc(NC(=O)CCc2c(C)nn(-c3ccc(N4CCCCC4)nn3)c2C)c1,6.16
15,Cc1ccccc1CNC(=O)CCn1nc(C)c2c(C)n(-c3ccccc3)nc2c1=O,2.24
16,Cc1[nH]n(-c2nc(-c3ccc(Cl)cc3)cs2)c(=O)c1N=Nc1ccc(O)cc1,15.9
17,Cc1ccc2nc3c(c(C(=O)OC4CCOC4=O)c2c1)CCCC3 (centres unmarked),7.73
18,COCCc1nnc(NC(=O)C(C)C)s1,9.63
19,O=C(Nc1nc2ccccc2s1)Nc1ccc([N+](=O)[O-])cc1Cl,19.7
20,CCC(C)NS(=O)(=O)c1ccc(S(=O)(=O)Nc2cc3c(cc2C(C)=O)OCO3)cc1 (centres unmarked),11.3
21,CCOC(=O)C(CC)(CC)C(=O)/C=C/c1ccc(OC)cc1,4.41
22,COc1ccc(NC(=O)c2cccc(NC(=O)c3ccccc3)c2)c(OC)c1,11.5

row,SMILES,"hERG current change (%, negative = inhibition) at 1uM [%]"
1,COc1ccccc1CNC(=O)C(c1ccccc1)c1ccccc1,15.9
2,OC(CNCCc1ccc(C(F)(F)F)cc1)COc1ccc2ccccc2c1 (centres unmarked),-9.24
3,Cc1ccc(Cl)cc1NC(=S)N(CCCN1CCOCC1)Cc1ccccn1,-0.469
4,CN(C)S(=O)(=O)c1cccc(NC(=S)NCCCn2ccnc2)c1,12.2
5,CC(C)=CC(=O)OCC(=O)Nc1cc(C)ccc1C,4.51
6,CC(=O)Oc1c(C)c(C)c2c(c1C)CCC(C)(CCCC(C)CCCC(C)CCCC(C)C)O2 (centres unmarked),4.27
7,CC(C)NC(=O)NC(=O)COC(=O)c1ccccc1Oc1ccccc1,6.23
8,O=C1Cc2ccccc2Sc2ccc(O)cc21,14.2
9,COc1ccc(NS(=O)(=O)c2cc(NC(=O)c3nn(C)c(=O)c4ccccc34)ccc2OC)cc1,4.74
10,CCCCCc1cc(=O)oc2c(C(CCN3CCCC(C)C3)c3ccc(N(C)C)cc3)c(OC)cc(OC)c12 (centres unmarked),11.4
11,CC(=O)C1=C(C)N(Cc2ccccc2)C(=O)N[C@H]1c1ccco1,12.2
12,O=C(OCC(=O)N1CCc2ccccc2C1)c1cccnc1Cl,12.2
13,Cc1ccc(C(C(=O)NC2CCCC2)N(Cc2ccc3c(c2)OCO3)C(=O)Cc2cccs2)cc1 (centres unmarked),4.88
14,CC(C)NC(=O)CCNC(=O)c1ccc(F)cc1,5.11
15,O=c1c2ccccc2[nH]c(=S)n1CCCn1ccnc1,11.1
16,CC(C)=CCN1CCN(C/C(Cl)=C/c2ccccc2)CC1CCO (centres unmarked),8.56
17,CCN1CCN(C(c2cccs2)C(C)NC(=O)C(=O)N2CCCCC2)CC1 (centres unmarked),14.5
18,Cc1ccc(S(=O)(=O)N(C)C)cc1NC(=O)C1CCCC1,2.29
19,CCOc1ccccc1N1CCN(Cc2ccc(Br)s2)CC1,2.99
20,CC1CCCN(C(=O)c2ccc([N+](=O)[O-])o2)C1 (centres unmarked),0.365
21,O=C(O)C1C2CCC(O2)C1C(=O)Nc1ccc(F)c(F)c1 (centres unmarked),20.1
22,Cc1ccc(-n2nc3c(c2NC(=O)c2ccc(Br)o2)CSC3)c(C)c1,-0.97
